The structures appear in SMILES notation. Some of the results follow. Repeats are few or missing, and single values can be far off.

The record followed here is the supplement of paper PMC4604168 (melanoma cell lines).

Some test systems named below: G361; IPC-298; IST-MEL1; LB2518-MEL; LOXIMVI; MEL-HO; MZ2-MEL; MeWo; RPMI7951; RVH-421.
What all share (assay): cell count relative to DMSO control; melanoma cells; higher = more viable cells
Conditions in all cases: library dose: standard library concentration; 72 h
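Further: cells treated in 1,536-well plates, then fixed and DAPI-stained, with nuclei counted from automated high-throughput microscope images.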

For the compound `Cn1cnc2c(F)c(Nc3ccc(Br)cc3Cl)c(C(=O)NOCCO)cc21` [selumetinib] + Nc1ccn([C@@H]2O[C@H](CO)[C@@H](O)C2(F)F)c(=O)n1 [gemcitabine] (first compound 0.075 µM, partner dose 0.002 µM), the cell count in the assay with G361 was 30.2%; with IPC-298, 31.2%; in the assay on IST-MEL1, 41.6%; in the assay on LB2518-MEL it was 46.4%; in the assay with LOXIMVI it was 73.9%; with MEL-HO, 46.3%. Further, the cell count with MZ2-MEL was 64.5%; with MeWo, 29.6%; in the assay with RPMI7951, 56.7%; in the assay on RVH-421 it was 48.1%.
Regarding `Cn1cnc2c(F)c(Nc3ccc(Br)cc3Cl)c(C(=O)NOCCO)cc21` [selumetinib] + CO[C@H]1C[C@@H]2CC[C@@H](C)[C@@](O)(O2)C(=O)C(=O)N2CCCC[C@H]2C(=O)O[C@H]([C@H](C)C[C@@H]2CC[C@@H](OCCO)[C@H](OC)C2)CC(=O)[C@H](C)/C=C(\C)[C@@H](O)[C@@H](OC)C(=O)[C@H](C)C[C@H](C)/C=C/C=C/C=C/1C [everolimus] (first compound 0.075 µM, partner dose 0.1 µM), the cell count stood at 50% in the assay on G361; 45.9% with IPC-298; 72% in the assay on IST-MEL1; 43.2% with LB2518-MEL; 121% with LOXIMVI; 52.7% in the assay on MEL-HO. Also, the cell count with MZ2-MEL is 65.6%; in the assay on MeWo, 59.1%; in the assay on RPMI7951 it was 76.3%; in the assay on RVH-421, 62.2%.
As to `Cn1cnc2c(F)c(Nc3ccc(Br)cc3Cl)c(C(=O)NOCCO)cc21` [selumetinib] + O=C(CCCCCCC(=O)Nc1ccccc1)NO [vorinostat] (first compound 0.075 µM, partner dose 0.4 µM), the cell count in the assay with G361 is 72.3%; in the assay with IPC-298, 58.8%; in the assay on IST-MEL1 it was 73.5%; in the assay with LB2518-MEL it was 39.4%; in the assay on LOXIMVI, 97.2%; with MEL-HO it was 81.6%. The cell count in the assay on MZ2-MEL turned out to be 78.6%; in the assay with MeWo it was 62.4%; in the assay with RPMI7951, 71.7%; in the assay with RVH-421 it was 77.8%.
As to `CCN(CC)CCNC(=O)c1c(C)[nH]c(/C=C2\C(=O)Nc3ccc(F)cc32)c1C` [sunitinib] + Cn1nnc2c(C(N)=O)ncn2c1=O [temozolomide] (first compound 2 µM, partner dose 10 µM), the cell count is 73.5% in the assay with G361; 60.5% in the assay with IPC-298; 70.8% with IST-MEL1; 54.8% in the assay on LB2518-MEL; 95.4% in the assay on LOXIMVI; 78.4% with MEL-HO. The cell count in the assay with MZ2-MEL stood at 92.8%; with MeWo it was 54.2%; in the assay with RPMI7951 it was 69.5%; in the assay with RVH-421 it was 85.6%.
For `COc1cc([C@@H]2c3cc4c(cc3[C@@H](O[C@@H]3O[C@@H]5CO[C@@H](C)O[C@H]5[C@H](O)[C@H]3O)[C@H]3COC(=O)[C@H]23)OCO4)cc(OC)c1O` [etoposide] + Nc1nc(F)nc2c1ncn2[C@@H]1O[C@H](CO)[C@@H](O)[C@@H]1O [fludarabine] (first compound 0.1 µM, partner dose 1 µM), the cell count amounted to 89.9% in the assay on G361; 74.9% with IPC-298; 72.1% with IST-MEL1; 83.5% with LB2518-MEL; 111% in the assay on LOXIMVI; 81% in the assay with MEL-HO. In addition, the cell count is 81% in the assay with MZ2-MEL, 88.4% with MeWo, 79.6% in the assay on RPMI7951 and 85.8% with RVH-421.
Turning to `Cn1cnc2c(F)c(Nc3ccc(Br)cc3Cl)c(C(=O)NOCCO)cc21` [selumetinib] + CCCS(=O)(=O)Nc1ccc(F)c(C(=O)c2c[nH]c3ncc(Cl)cc23)c1F [PLX4720] (first compound 0.075 µM, partner dose 0.4 µM), the cell count is 49.6% in the assay with G361; 55.3% in the assay with IPC-298; 88.3% in the assay with IST-MEL1; 58.2% with LB2518-MEL; 104% with LOXIMVI; 64.7% with MEL-HO. The cell count in the assay with MZ2-MEL turned out to be 85.7%; in the assay on MeWo, 94.1%; in the assay on RPMI7951, 162%; in the assay on RVH-421 it was 89.1%.
On to `CCN(CC)CCNC(=O)c1c(C)[nH]c(/C=C2\C(=O)Nc3ccc(F)cc32)c1C` [sunitinib] + C=CCn1c(=O)c2cnc(Nc3ccc(N4CCN(C)CC4)cc3)nc2n1-c1cccc(C(C)(C)O)n1 [MK1775] (first compound 2 µM, partner dose 0.1 µM), for which the cell count in the assay with G361 was 75.6%; with IPC-298, 53.1%; in the assay on IST-MEL1, 106%; in the assay on LB2518-MEL, 53%; in the assay on LOXIMVI it was 93.3%; with MEL-HO, 99.9%. In addition, the cell count turned out to be 102% with MZ2-MEL, 53.3% with MeWo, 72.3% in the assay on RPMI7951 and 134% with RVH-421.
`C[C@]1(O)C[C@@H](c2nc(-c3ccc4ccc(-c5ccccc5)nc4c3)c3c(N)nccn32)C1` + NCC(=O)Nc1ccc(-n2nc(C(F)(F)F)cc2-c2ccc3c(ccc4ccccc43)c2)cc1 [OSU03012] (first compound 2 µM, partner dose 5 µM): the cell count is 41.4% with G361; 53.5% with IPC-298; 71.3% with IST-MEL1; 77.8% with LB2518-MEL; 71.5% in the assay on LOXIMVI; 73.1% in the assay on MEL-HO. The cell count in the assay on MZ2-MEL was 75.6%; in the assay with MeWo it was 76.2%; with RPMI7951, 85%; in the assay with RVH-421 it was 76.8%.
In the case of `CCN(CC)CCNC(=O)c1c(C)[nH]c(/C=C2\C(=O)Nc3ccc(F)cc32)c1C` [sunitinib] + Cc1cc(Nc2cc(N3CCN(C)CC3)nc(/C=C/c3ccccc3)n2)n[nH]1 [ENMD2076] (first compound 2 µM, partner dose 0.2 µM), the cell count with G361 came to 104%; with IPC-298, 66.2%; in the assay with IST-MEL1, 104%; with LB2518-MEL, 67.6%; with LOXIMVI, 150%; with MEL-HO, 87.3%. Moreover, the cell count in the assay on MZ2-MEL came out at 124%; in the assay with MeWo, 60.1%; in the assay on RPMI7951 it was 102%; in the assay on RVH-421, 104%.
